Data published in ChEMBL document CHEMBL4888484, “Replenishing the malaria drug discovery pipeline: Screening and hit evaluation of the MMV Hit Generation Library 1 (HGL1) against asexual blood stage Plasmodium falciparum ,using a nano luciferase reporter read-out” (2022).
Screen size: about 150,000 compounds; about 540 (0.36%) showed an effect of 50% or more. Some of the results follow.

test system: Plasmodium falciparum; test: Primary screen in NF54 nanoGlo assay, in single point, at 2uM, 72h; a lower Z score goes with more inhibition; format: functional, Erythrocyte; conditions: timepoint 72 hour

Compound	% Inhibition	Z score
O=S(=O)(Nc1ccc(-n2cncn2)nc1)c1ccc2c(c1)OCCCO2	9%	-1.27
COCC(NC(=O)N1CCCC(C)(O)CC1)c1ccc(Cl)cc1 (stereo not given)	-12%	1.66
Cc1noc2ncnc(N3CCC[C@H](C(=O)N4CCCc5ccccc54)C3)c12	-3%	0.61
CCOc1nnc(CN2C[C@@H]3CN(c4nc5ccccc5o4)C[C@]3(C)C2)s1	-2%	0.3
CC(C)N(CC(=O)N(Cc1ccc(F)cc1)Cc1cccs1)C(=O)c1ccc(Cl)cc1	14%	-1.58
O=C(OCC(=O)N1CCNC1=O)c1ccc(-c2ccccc2)cc1	-6%	1.02
Cc1noc2ncnc(NC(C)(C)CO)c12	-12%	2.02
Cc1cc(C(=O)N2CC(Oc3ccccc3F)C2)cc(=O)[nH]1	-6%	1.04
CC(C)N1C(=O)C[C@H](N2CCN(Cc3ccccc3)CC2)C1=O	-1%	0.15
CC1CN(C(=O)CN2CCCC2c2nc3ccccc3s2)CCO1 (stereo not given)	2%	-0.38
N#Cc1cccnc1NCc1cnn2c1CCCC2	-21%	2.6
COCC1(Cn2cnc3nccnc3c2=O)CCC1	0%	-0.03
CCN(CC(=O)Nc1nc(-c2ccccc2)cn1-c1ccc(C)c(F)c1)C(=O)c1cccc(OC)c1	-4%	0.82
CCOc1ccc(Nc2cc(C(=O)N3CCC(C)CC3)nc3ccc(F)cc23)cc1	-6%	0.72
CC(C)(Cc1ccc(F)cc1)N1Cc2ncccc2C1=O	-12%	1.53
Cc1c(NC2CCC(C)CC2n2cncn2)cnn1C (stereo not given)	2%	-0.24
O=C(CCc1cccc(Cl)c1)N1CCC(n2c(=O)[nH]c3ccc(F)cc3c2=O)CC1	-9%	1.16
COc1cc(C2CN(C(=O)C3CCCC3)CC2C(=O)NCC(C)C)cc(OC)c1OC (stereo not given)	-5%	0.73
CC[C@H](C)NC(=O)c1ccc(F)cc1Cl	-10%	1.55
COC[C@H]1[C@@H](NC(=O)C(C)(C)Oc2cc(C)ccc2C(C)C)[C@H]2CCO[C@H]21	-10%	1.12
CC(C)CN1CCCN(C(=O)c2cc(Cl)c[nH]2)CC1	3%	-0.59
Cc1cnc(C(=O)N2CCC[C@H]2C(=O)OCc2ccccc2)cn1	-19%	2.41
Cc1nn(-c2ccccc2)c2nc3c(F)c(F)c(F)c(F)c3cc12	26%	-2.89
CC(C)(C)OC(=O)N1CC2CC(=O)CC1C2 (stereo not given)	3%	-0.39
Cc1cc(NS(=O)(=O)c2ccc3c(c2)CCCC3)ccc1N1CCCC1=O	-15%	2.4
Cc1cc(C)cc(NC(=O)Cn2nc3c(N4CCCCCC4)nccn3c2=O)c1	-1%	0.11
CCc1nnc2n1CCN(Cc1cn3ccccc3n1)C2	3%	-0.45
Cc1nc(COc2ccccc2)sc1C(=O)NCc1cccnc1	-8%	1.08

Compound	% Inhibition	Z score
CC(C)c1onc(C(F)(F)F)c1C(=O)NC[C@H](C)N1CCOCC1	-6%	0.57
COc1ccccc1C(=O)Nc1ccc(C2OC(=O)N(Cc3ccc(C)cc3)C2C(=O)Nc2cccc(F)c2)cc1 (stereo not given)	-6%	1.02
Cc1cc(NC(=O)NC(C)C)c2[nH]c(C(=O)N3CCOCC3)c(-c3ccccc3)c2c1	37%	-4.21
O=C(CC[C@@H]1NC(=O)NC1=O)NCc1noc(C2CCCC2)n1	-3%	0.38
CCn1c(C)nnc1Cn1c(=O)n(C2=CCCCC2)c2ccccc21	-11%	1.35
COc1ccc(N2C(=O)[C@@H]3CCCN3[C@H]2c2ccc(Cl)c(Cl)c2)cc1	-12%	1.52
CC(C)(C(=O)N1CCOc2ccc(F)cc2C1)C1CC1	0%	0
CC(C)(CN1CCCCCC1)Nc1cc(C2CC(O)C2)ncn1 (stereo not given)	0%	0.04
N#CC1(C(=O)NC[C@H](O)c2ccsc2)CCCC1	-13%	1.49
Cc1ccc(C)c(CN(c2cc(F)cc(F)c2)S(=O)(=O)c2cccn3cnnc23)c1	-7%	0.91
CCn1nc(C)cc1CN(C)Cc1c(C)n[nH]c1C	6%	-0.81
Cc1nc2ccc(NC(=O)[C@@H]3CC=CCC3)cc2s1	-4%	0.47
CC1OCCC1NC(=O)CCCNC(=O)OC(C)(C)C (stereo not given)	-11%	1.46
Cc1nn(CC(=O)N2CCOC[C@@H](O)C2)cc1Cl	-5%	0.77
O=C(CCc1cc2n(n1)CCCN(c1ncnc3c1CCC3)C2)NCCO	-14%	1.27
Cc1cc(C)c(C)c(C(=O)N2CC=CC2)c1C	7%	-0.89
CC1CN(C(=O)c2ccc3c(c2)OCC(=O)N3)C(C)CO1 (stereo not given)	3%	-0.5
O=C(c1ccc2nncn2c1)N1CC=C(c2ccc(Cl)cc2)CC1	0%	-0.04
Cc1ccc(-c2c([C@@H]3c4ccccc4C(=O)N3CCC(C)C)c3ccccc3n2C)cc1	29%	-3.27
CCn1c(CC2CCN(Cc3c(C)n[nH]c3C)CC2)nn(C)c1=O	5%	-0.86
CC1CN(c2snnc2C(N)=O)CC(C)O1 (stereo not given)	34%	-3.86
Cc1ccccc1NC(=O)c1cc(Cl)cc(Cl)c1NC(=O)c1cccnc1	-3%	0.54
Cc1cccc2oc(N[C@H]3CCCNC3=O)nc12	-7%	0.89
C[C@H](NC(=O)N1CCOCC1)c1nc2c(s1)CCCC2	-8%	1.11
CC[C@H]1CN(C(=O)CCc2nc(-c3ccsc3)no2)CCO1	-2%	0.2
Cc1cc(CN(C)c2ncnc3c2CCN(S(C)(=O)=O)CC3)n[nH]1	0%	0.01
CN(C)[C@H]1CCC[C@@H]1Nc1ccc2cccc(Cl)c2n1	0%	-0.01
